# According to PubChem BioAssay AID2675 (National Center for Advancing Translational Sciences (NCATS), 2010):
# Hit rate of the full screen: of about 280,000 compounds, about 100 (0.036%) were called active. The shares of active, inactive and inconclusive entries below differ from those in the screen. The call rests on the fitted dose curve; in most records, active means well fitted inhibition curve with a large enough effect in the signal ratio, with a control signal flat (not every such curve was filed as active); inconclusive means small, poorly fitted or top-dose-only effect, or effect the other way, or a change in a side signal; inactive means no such curve, though single readings can be large or run the other way; the % refers to the signal ratio. Potencies beside an inconclusive call are fits to weak or partial responses and may not hold up. “Side channel” marks fits to a control or component signal instead of the main read-out.
# Target: Muscleblind-like protein 1 (Homo sapiens) (UniProt Q9NR56)
# Chain of UniProt Q9NR56 (Q9NR56 whole entry, looked up): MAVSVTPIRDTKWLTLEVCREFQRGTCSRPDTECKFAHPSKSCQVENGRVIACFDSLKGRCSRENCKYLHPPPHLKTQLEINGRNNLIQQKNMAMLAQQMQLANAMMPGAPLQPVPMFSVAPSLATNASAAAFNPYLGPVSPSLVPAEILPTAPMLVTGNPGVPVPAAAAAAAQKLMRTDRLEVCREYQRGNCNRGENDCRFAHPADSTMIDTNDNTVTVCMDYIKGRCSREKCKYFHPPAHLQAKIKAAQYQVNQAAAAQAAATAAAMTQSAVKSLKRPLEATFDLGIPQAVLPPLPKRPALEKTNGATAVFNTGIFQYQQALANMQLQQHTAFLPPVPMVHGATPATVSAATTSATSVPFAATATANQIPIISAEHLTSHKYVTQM
# Assay: qHTS Assay for Inhibitors of MBNL1-poly(CUG) RNA binding
# Details: TR-FRET MBNL1-His/biotin-(CUG)12 binding, 665/545 ratio; activity change, negative = inhibition: at 57.5 µM (top of the series)
# Method in brief: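 TR-FRET readout: Ex 340 nm, 665/545 nm emission ratio, normalized to buffer-only (basal) and MBNL1-(CUG)12 controls. Complex of MBNL1-His with Biotin-(CUG)12, compounds 92 nM–58 uM, incubated 60 min at room temperature.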
# On the % scale 0 is the no-effect control and ±100 the full control effect; potency means the concentration at half of the fitted maximal effect; tags describe the fitted curve by direction and shape or compound fluorescence and quenching.
SMILES,Potency,"activity change, negative = inhibition"
CC(=O)c1ccc2c3c(ccc(O)c13)CC2,"inconclusive: 22.4 µM [quencher, side channel, partial curve]",–
c1cn(-c2ccc(-c3ccnc4ncnn34)cc2)cn1,"inconclusive: 15.8 µM [quencher, side channel, partial curve]",–
COc1cccc(-c2cc(C(=O)N3CCc4ccccc4C3)[nH]n2)c1,–,inactive: -6.61%
CCOc1ccc2nc(NC3=NC(C)(C)C=C(C)N3)nc(C)c2c1,–,inactive: 8.58%
COC(=O)CSc1ccc(C#N)c(SCC(=O)OC)c1,"inconclusive: 28.2 µM [quencher, side channel, partial curve]",–
O=C(Cn1c(=O)c2c(ncn2Cc2ccccc2)n(Cc2ccccc2)c1=O)N1CCc2ccccc21,"inconclusive: 14.1 µM [quencher, side channel, partial curve]",–
O=C(O)CN1C(=O)/C(=C\c2cccc(OC(=O)c3ccco3)c2)SC1=S,"inconclusive: 15.8 µM [quencher, side channel, partial curve]",–
N#Cc1cccnc1N1CCN(C(=O)c2cccs2)CC1,–,inactive: -0.324%
Cc1no[n+]([O-])c1COc1ccc(/C=C(\C#N)C(N)=O)cc1,"inconclusive: 10 µM [quencher, side channel, partial curve]",–
N#C/C(N)=C(/C#N)N=Cc1cccc(Cl)c1,"inconclusive: 12.6 µM [quencher, side channel, partial curve]",–
Cc1ccc(CNC(=O)C2CC(c3cccc([N+](=O)[O-])c3)=NO2)cc1 (stereo unspecified),"inconclusive: 17.8 µM [quencher, side channel, partial curve]",–
CNC(=S)N/N=C(\C)c1ccccc1,–,inactive: -4.21%
COc1ccc(NC(=O)c2cccnc2SC)cc1S(=O)(=O)N1CCCCC1,–,inconclusive: 1.79% [phenotype inactive]
O=C(Nc1ccc(Cl)c(Cl)c1)Nc1nnc(CC2=CCCCC2)s1,–,inactive: -10.2%
O=C(NC12CC3CC(CC(C3)C1)C2)c1cccnc1,–,inactive: -5.45%
CN(CCOc1ccccc1)CC(=O)Nc1ccc(Cl)cc1[N+](=O)[O-],"inconclusive: 31.6 µM [quencher, side channel, single point]",–
O=C(NNC(=O)C1CC1)c1cccc([N+](=O)[O-])c1,"inconclusive: 15.8 µM [quencher, side channel, partial curve]",–
CCOCCCn1c(=N)c(C(=O)NCc2ccc3c(c2)OCO3)cc2c(=O)n3cccc(C)c3nc21,"inconclusive: 3.16 µM [quencher, side channel, full curve]",–
CCOc1ccc(CN2CCNC(=O)C2CC(=O)NCCc2cnccn2)cc1 (stereo unspecified),–,inactive: 4.09%
COc1ccc(S(=O)(=O)N(CC(=O)Nc2ccc(S(=O)(=O)N3CCOCC3)cc2)c2ccccc2)cc1,"inconclusive: 10 µM [fluorescent, side channel, partial curve]",–
Cc1ccc(-c2nnc(CCC(=O)N(C)Cc3nccs3)o2)s1,"inconclusive: 20 µM [inhibitor, single point]",–

SMILES,Potency,"activity change, negative = inhibition"
CCC(=O)Nc1cccc(C(=O)OCc2cccc([N+](=O)[O-])c2)c1,"inconclusive: 12.6 µM [quencher, side channel, partial curve]",–
CCOC(=O)/C(C#N)=C\c1ccc(CC)s1,"inconclusive: 12.6 µM [quencher, side channel, partial curve]",–
CNC(=O)c1cc2ccc(OC)cc2oc1=O,"inconclusive: 12.6 µM [quencher, side channel, partial curve]",–
Cc1cc(C)nc(N/N=C/c2ccccc2OCc2ccccc2)n1,–,inactive: 3.87%
Cc1nc2c([N+](=O)[O-])c(C)c(C)cc2[nH]1,"inconclusive: 35.5 µM [quencher, side channel, single point]",–
Cc1cc(Oc2ccc(N)cn2)ccc1Cl,–,inactive: 0.298%
C/C(=N\Nc1cc(C)nc(-c2ccccc2)n1)c1cccc([N+](=O)[O-])c1,"inconclusive: 6.31 µM [inhibitor, single point]",–
COc1ccc(CC(=O)NCC(=O)NCc2cc(=O)n(C)c(=O)n2C)cc1,–,inactive: 4.72%
CCCC(=O)Nc1ccc(C(=O)NCCc2ccc(F)cc2)cc1,"inconclusive: 1 µM [fluorescent, side channel, partial curve]",–
O=C(CSc1ccc2nnc(CCNC(=O)c3ccccc3)n2n1)Nc1ccc(F)cc1F,–,inactive: -4.89%
O=C1c2ccccc2C(=O)N1CC1c2ccccc2CCN1S(=O)(=O)c1ccccc1 (stereo unspecified),"inconclusive: 11.2 µM [quencher, side channel, partial curve]",–
CCn1nnc(NC(=O)c2cccc(-c3cc4ccccc4oc3=O)c2)n1,"inconclusive: 7.94 µM [quencher, side channel, partial curve]",–
COc1ccc(/C=C2\Sc3ccc(C(=O)N4CCN(Cc5ccccc5)CC4)cc3N(C)C2=O)cc1OC,"inconclusive: 28.2 µM [quencher, side channel, partial curve]",–
COc1ccc(NC(=O)c2sc(SC)nc2N)cc1,"inconclusive: 17.8 µM [quencher, side channel, partial curve]",–
CCOc1ccc(C2NC(=O)c3sc(=S)n(-c4ccccc4)c3N2)cc1 (stereo unspecified),"inconclusive: 3.98 µM [quencher, side channel, full curve]",–
O=C1Nc2ccc(S(=O)(=O)N3CCCC3C(=O)O)c3cccc1c23 (stereo unspecified),"inconclusive: 17.8 µM [quencher, side channel, partial curve]",–
O=C(/C=C/c1ccco1)NC(=S)Nc1ccccc1N1CCCC1,"inconclusive: 28.2 µM [quencher, side channel, single point]",–
Brc1ccc(-c2nn3c(-c4ccccn4)nnc3s2)o1,"inconclusive: 39.8 µM [quencher, side channel, single point]",–
CC(=O)c1ccc(N(C)C)c2c(N(C)C)cccc12,"inconclusive: 25.1 µM [quencher, side channel, single point]",–
CCc1ccccc1NC(=O)c1sc2nc(C)cc(C)c2c1N,–,inactive: 52.5%
